Measured values published in article PMC4705382.
Results are given in words; binding and its absence hold for the method and conditions named. In cells and extracts the contact can be indirect. Some binding calls cover weakened binding; strength is not graded here. Where a sequence is shown, tags or fusion partners need not be part of it.

Chains of the proteins cited; added tags and fusions are not shown.
UniProt Q8IXI2: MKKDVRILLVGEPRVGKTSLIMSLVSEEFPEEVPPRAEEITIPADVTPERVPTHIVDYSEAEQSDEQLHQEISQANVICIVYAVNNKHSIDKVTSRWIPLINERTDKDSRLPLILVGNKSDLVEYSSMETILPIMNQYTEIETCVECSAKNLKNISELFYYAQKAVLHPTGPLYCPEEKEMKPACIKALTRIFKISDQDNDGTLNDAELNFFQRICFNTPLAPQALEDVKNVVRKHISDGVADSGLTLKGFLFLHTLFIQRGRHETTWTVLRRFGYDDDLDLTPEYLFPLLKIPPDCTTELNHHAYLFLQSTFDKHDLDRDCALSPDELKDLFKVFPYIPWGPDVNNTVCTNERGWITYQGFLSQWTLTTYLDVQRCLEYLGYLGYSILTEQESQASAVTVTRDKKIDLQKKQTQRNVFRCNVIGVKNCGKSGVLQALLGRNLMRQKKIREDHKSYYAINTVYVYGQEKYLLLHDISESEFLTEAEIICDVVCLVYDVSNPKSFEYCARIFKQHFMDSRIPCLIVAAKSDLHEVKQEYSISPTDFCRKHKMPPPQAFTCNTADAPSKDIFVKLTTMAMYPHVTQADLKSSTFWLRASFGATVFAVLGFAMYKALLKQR
UniProt Q8IXI1: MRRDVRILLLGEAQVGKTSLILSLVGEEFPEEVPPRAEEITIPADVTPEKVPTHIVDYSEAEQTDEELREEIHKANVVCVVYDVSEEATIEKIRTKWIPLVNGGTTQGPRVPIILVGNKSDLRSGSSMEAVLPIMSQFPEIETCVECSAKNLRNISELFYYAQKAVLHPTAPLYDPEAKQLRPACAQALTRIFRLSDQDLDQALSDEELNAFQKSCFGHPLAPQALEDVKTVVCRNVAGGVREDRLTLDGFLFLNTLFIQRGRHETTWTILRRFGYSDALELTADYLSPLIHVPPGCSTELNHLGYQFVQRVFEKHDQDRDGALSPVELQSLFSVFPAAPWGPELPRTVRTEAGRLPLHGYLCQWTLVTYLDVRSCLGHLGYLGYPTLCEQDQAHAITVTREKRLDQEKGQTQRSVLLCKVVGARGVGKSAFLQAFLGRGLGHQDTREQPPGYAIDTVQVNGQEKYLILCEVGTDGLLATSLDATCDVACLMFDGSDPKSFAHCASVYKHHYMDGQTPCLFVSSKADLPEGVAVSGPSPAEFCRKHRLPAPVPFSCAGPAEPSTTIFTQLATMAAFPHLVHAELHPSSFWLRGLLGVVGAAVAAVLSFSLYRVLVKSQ

Key:
[1] = target: ^GFPMiro1 (UniProt Q8IXI2); experiment: co-IP; GFP trap beads (Chromotek) on lysates of co-transfected COS7 cells; lysis buffer 50 mM HEPES pH 7.5, 0.5% Triton X-100, 150 mM NaCl, 1 mM EDTA; Western blot
[2] = target: ^GFPMiro2 (UniProt Q8IXI1); experiment: as above
[3] = target: T1, ^GFPTRAK1 (mouse) (UniProt Q6PD31); experiment: as above
T1 sequence: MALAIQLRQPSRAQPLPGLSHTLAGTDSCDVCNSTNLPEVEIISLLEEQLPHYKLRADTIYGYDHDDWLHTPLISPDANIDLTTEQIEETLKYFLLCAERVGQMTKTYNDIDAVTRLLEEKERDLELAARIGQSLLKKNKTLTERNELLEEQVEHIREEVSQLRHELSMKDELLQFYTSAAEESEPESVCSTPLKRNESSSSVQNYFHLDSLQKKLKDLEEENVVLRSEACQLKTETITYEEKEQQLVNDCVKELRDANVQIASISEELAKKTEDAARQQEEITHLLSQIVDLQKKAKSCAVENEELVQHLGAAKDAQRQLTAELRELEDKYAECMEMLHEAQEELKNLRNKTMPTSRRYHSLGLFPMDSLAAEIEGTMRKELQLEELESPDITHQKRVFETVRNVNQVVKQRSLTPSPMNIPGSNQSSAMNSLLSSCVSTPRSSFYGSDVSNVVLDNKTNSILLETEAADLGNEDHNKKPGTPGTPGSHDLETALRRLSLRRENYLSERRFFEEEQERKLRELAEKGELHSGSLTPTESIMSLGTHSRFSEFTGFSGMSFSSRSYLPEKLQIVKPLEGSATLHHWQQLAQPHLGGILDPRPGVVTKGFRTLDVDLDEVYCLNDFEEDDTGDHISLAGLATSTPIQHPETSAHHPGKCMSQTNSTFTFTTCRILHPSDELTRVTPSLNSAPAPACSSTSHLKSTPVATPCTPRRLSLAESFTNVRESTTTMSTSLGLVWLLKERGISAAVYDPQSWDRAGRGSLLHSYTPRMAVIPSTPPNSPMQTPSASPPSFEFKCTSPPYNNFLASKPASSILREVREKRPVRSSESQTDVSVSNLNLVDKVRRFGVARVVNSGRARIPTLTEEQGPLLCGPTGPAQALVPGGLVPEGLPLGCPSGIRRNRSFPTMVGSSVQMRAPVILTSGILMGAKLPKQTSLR

[4] = target: T2, ^mycMitofusin2 (UniProt Q80U63); experiment: co-IP; rabbit anti-Myc beads (Sigma) on lysates of co-transfected COS7 cells; lysis buffer 50 mM HEPES pH 7.5, 0.5% Triton X-100, 150 mM NaCl, 1 mM EDTA; Western blot
T2 sequence: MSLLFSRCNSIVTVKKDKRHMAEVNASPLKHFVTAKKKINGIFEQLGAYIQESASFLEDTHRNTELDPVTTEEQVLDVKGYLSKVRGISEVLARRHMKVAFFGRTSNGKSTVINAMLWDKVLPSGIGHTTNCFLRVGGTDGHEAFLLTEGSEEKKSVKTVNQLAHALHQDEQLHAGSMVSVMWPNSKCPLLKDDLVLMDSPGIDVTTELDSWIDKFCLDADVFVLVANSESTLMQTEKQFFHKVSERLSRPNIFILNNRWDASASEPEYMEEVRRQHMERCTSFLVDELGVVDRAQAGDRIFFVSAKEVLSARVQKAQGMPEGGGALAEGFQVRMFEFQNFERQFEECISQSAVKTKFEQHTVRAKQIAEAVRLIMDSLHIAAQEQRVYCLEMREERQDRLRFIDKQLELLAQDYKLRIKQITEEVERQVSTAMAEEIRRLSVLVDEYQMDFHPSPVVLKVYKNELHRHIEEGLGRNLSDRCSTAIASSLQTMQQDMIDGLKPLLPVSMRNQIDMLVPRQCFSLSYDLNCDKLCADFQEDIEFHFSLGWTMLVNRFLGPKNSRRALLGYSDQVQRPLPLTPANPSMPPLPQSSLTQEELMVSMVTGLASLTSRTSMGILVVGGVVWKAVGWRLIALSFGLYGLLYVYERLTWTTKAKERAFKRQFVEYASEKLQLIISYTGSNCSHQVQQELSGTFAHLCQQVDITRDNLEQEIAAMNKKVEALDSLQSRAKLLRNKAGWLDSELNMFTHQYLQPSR

binding [1]: binds
binding [2]: binds
binding [3]: binds
binding [4]: binds
B1: Untagged human DISC1 (protein, UniProt Q9NRI5 1-854)
chain: MPGGGPQGAPAAAGGGGVSHRAGSRDCLPPAACFRRRRLARRPGYMRSSTGPGIGFLSPAVGTLFRFPGGVSGEESHHSESRARQCGLDSRGLLVRSPVSKSAAAPTVTSVRGTSAHFGIQLRGGTRLPDRLSWPCGPGSAGWQQEFAAMDSSETLDASWEAACSDGARRVRAAGSLPSAELSSNSCSPGCGPEVPPTPPGSHSAFTSSFSFIRLSLGSAGERGEAEGCPPSREAESHCQSPQEMGAKAASLDGPHEDPRCLSRPFSLLATRVSADLAQAARNSSRPERDMHSLPDMDPGSSSSLDPSLAGCGGDGSSGSGDAHSWDTLLRKWEPVLRDCLLRNRRQMEVISLRLKLQKLQEDAVENDDYDKAETLQQRLEDLEQEKISLHFQLPSRQPALSSFLGHLAAQVQAALRRGATQQASGDDTHTPLRMEPRLLEPTAQDSLHVSITRRDWLLQEKQQLQKEIEALQARMFVLEAKDQQLRREIEEQEQQLQWQGCDLTPLVGQLSLGQLQEVSKALQDTLASAGQIPFHAEPPETIRSLQERIKSLNLSLKEITTKVCMSEKFCSTLRKKVNDIETQLPALLEAKMHAISGNHFWTAKDLTEEIRSLTSEREGLEGLLSKLLVLSSRNVKKLGSVKEDYNRLRREVEHQETAYETSVKENTMKYMETLKNKLCSCKCPLLGKVWEADLEACRLLIQSLQLQEARGSLSVEDERQMDDLEGAAPPIPPRLHSEDKRKTPLKVLEEWKTHLIPSLHCAGGEQKEESYILSAELGEKCEDIGKKLLYLEDQLHTAIHSHDEDLIQSLRRELQMVKETLQAMILQLQPAKEAGEREAAASCMTAGVHEAQA
